By IC50 is commonly meant the concentration that gives 50% inhibition.

In one assay the target is T1, natIn-NOTA-PEG2-RM26 (synthetic construct, D-Phe1, statine (Sta) between His and Leu, C-terminal amide, N-terminal NOTA-PEG2 loaded with natIn).
T1 chain: FQWAVGHL
In words: competition binding with 125I-Tyr4-BBN on PC-3 cells.

The next assay addresses T2, natCo-NOTA-PEG2-RM26 (synthetic construct, D-Phe1, statine (Sta) between His and Leu, C-terminal amide, N-terminal NOTA-PEG2 loaded with natCo).
T2 chain: FQWAVGHL
Described as above.

B1: GRPR (protein)
chain: MALNDCFLLNLEVDHFMHCNISSHSADLPVNDDWSHPGILYVIPAVYGVIILIGLIGNITLIKIFCTVKSMRNVPNLFISSLALGDLLLLITCAPVDASRYLADRWLFGRIGCKLIPFIQLTSVGVSVFTLTALSADRYKAIVRPMDIQASHALMKICLKAAFIWIISMLLAIPEAVFSDLHPFHEESTNQTFISCAPYPHSNELHPKIHSMASFLVFYVIPLSIISVYYYFIAKNLIQSAYNLPVEGNIHVKKQIESRKRLAKTVLVFVGLFAFCWLPNHVIYLYRSYHYSEVDTSMLHFVTSICARLLAFTNSCVNPFALYLLSKSFRKQFNTQLLCCQPGLIIRSHSTGRSTTCMTSLKSTNPSVATFSLINGNICHERYV
As to B1, the IC50 with natIn-NOTA-PEG2-RM26 was determined as 2.5 nM; in the assay with natCo-NOTA-PEG2-RM26 it was 5.5 nM.

Source of the values: publication PMC5612608 (2017).
